Reference: the supplement of paper PMC10338343
± gives the standard deviation. Only a part is listed here, and it is no random draw.

tested on: MIWI (PIWIL1) piRISC loaded with piRNA #1 (30 nt); assay: pre-steady-state target cleavage rate (min^-1); MIWI and MILI are mouse PIWI proteins and EfPiwi is from a freshwater sponge; tags in brackets are library labels; higher = faster piRNA-guided slicing of the target; details: guide: piRNA #1 5'p-UGAGGUAGUAGGUUGUAUAGUAUCCAGAGG; auxiliary factor: 500 nM mouse GTSF1
Outline: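 The pre-steady-state cleavage rate was obtained by Cleave-'n-Seq with a burst-and-steady-state fit. A transcribed, DNA-blocked target RNA library (0.1 nM) was mixed with 1 nM active affinity-purified piRISC carrying one synthetic guide, with or without 500 nM GTSF1 partner protein, in HEPES–potassium acetate buffer at 33 °C for 0–8 or 0–960 min. Uncleaved targets were sequenced and normalised to depth and to weakly complementary targets, with three trials pooled and k3 capped at 0.0001 min^-1.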

Row | Sequence | pre-steady-state target cleavage rate
1 | GGAGACCAUACUAAACAACCUAGUACCUCA | 0.297 ± 0.028
2 | CCUCUGGAUACUAUACUACCUACUAGCUCA | 1.34 ± 0.13
3 | GGAGACCUUUCUAUACAACCUACUUCCUCA | 0.142 ± 0.018
4 | GGAGACCUAACUAUACAUCCUUCUACCUCA | 0.05 ± 0.013
5 | GGACUGGAUACUAUACAACGUACUUCCUCA | 0.209 ± 0.034
6 | GGAGACCAUAGUAUACAACCUUCUACCUCA | 0.274 ± 0.033
7 | GGAGACCAUACUAUACAACCUAGCUACCUCA | 0.174 ± 0.016
8 | GGUCUGGAUACUAUACAACCUUGUACCUCA | 0.0319 ± 0.0072
9 | GGAGACCAUACUAAUGAACCUACUACCUCA | 0.00823 ± 0.0037
10 | GGAGAGGAUACUAUACAACCAACUUCCUCA | 0.0155 ± 0.0039
11 | GCACUGGAUACUAUACAACCUUCUACCUCA | 0.829 ± 0.039
12 | GGAGACCUUACUAUACAACCUACUACCUACA | 1.2 ± 0.073
13 | GGAGACCAUACUAUAGAACCUACUUCCUCA | 0.243 ± 0.052
14 | GGAGACCUAUCUAGACAACCUACUACCUCA | 0.332 ± 0.037
15 | GGAGACCAUACUAUACAUCCUACUACCACA | 1.37 ± 0.085
16 | GGAGAGGAUUCUAUACAACCUACUACGUCA | 0.476 ± 0.046
